112 compounds from PubChem BioAssay AID488969 (Vanderbilt High Throughput Screening Facility, 2010) can be followed below.

The full ranking holds about 110,000 compounds; the median of “z-score” is about -0.1, and the highest 2% start at about 2. The list shows a part of the results. Calls of active or inactive are those of the source.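 Rule for the calls: active = z-score in the third read window above 3 or below -3; inactive = the rest.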

The experiment deals with Metabotropic glutamate receptor 8 (Rattus norvegicus) (UniProt P70579). The experiment can be described thus: rat mGluR8 modulators via GIRK flux, primary screen, cell-based, thallium flux, HTS (AID 488969). To be noted: HEK293 rat mGluR8, GIRK (G protein-gated inwardly rectifying potassium channel) thallium flux, FluoZin2; at 10 µM; stronger effect = higher value; submaximal glutamate (EC20) added with thallium.
Chain of UniProt P70579 (P70579 whole entry, looked up): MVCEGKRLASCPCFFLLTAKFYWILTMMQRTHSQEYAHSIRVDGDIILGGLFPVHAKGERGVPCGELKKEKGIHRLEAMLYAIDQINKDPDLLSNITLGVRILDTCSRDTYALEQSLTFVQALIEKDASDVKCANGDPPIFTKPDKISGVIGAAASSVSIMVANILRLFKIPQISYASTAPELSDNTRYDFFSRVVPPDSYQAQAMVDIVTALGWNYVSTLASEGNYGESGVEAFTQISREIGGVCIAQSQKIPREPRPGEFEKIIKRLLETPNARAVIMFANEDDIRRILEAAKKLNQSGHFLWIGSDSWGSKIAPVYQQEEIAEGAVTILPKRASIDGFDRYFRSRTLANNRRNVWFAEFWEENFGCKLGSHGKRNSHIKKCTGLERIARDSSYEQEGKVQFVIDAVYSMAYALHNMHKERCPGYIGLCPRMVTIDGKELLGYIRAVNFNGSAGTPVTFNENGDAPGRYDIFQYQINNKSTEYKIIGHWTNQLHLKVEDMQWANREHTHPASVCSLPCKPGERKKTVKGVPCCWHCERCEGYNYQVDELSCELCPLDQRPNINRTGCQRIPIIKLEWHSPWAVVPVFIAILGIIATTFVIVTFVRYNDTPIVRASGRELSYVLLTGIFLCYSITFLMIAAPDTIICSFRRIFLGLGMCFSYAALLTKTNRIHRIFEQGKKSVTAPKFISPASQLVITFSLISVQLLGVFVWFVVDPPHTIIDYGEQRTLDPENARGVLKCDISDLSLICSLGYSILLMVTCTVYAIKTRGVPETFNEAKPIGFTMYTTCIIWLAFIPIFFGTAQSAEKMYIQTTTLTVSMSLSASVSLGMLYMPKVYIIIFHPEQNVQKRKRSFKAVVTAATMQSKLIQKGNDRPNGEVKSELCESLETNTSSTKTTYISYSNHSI
Compound `CC1=C(C(=O)Nc2ccccc2)C(c2ccc3c(c2)OCO3)C2=C(CCCC2=O)N1` (configuration not stated) returned a z-score of -0.226.

Turning to `NC(=S)c1ccc(C(N)=S)o1`, the z-score stood at 0.498.

As for `Cc1ccccc1NC(=O)Nc1nnc(Cc2ccc([N+](=O)[O-])cc2)s1`, the z-score was -0.208.

For the compound `CCCCc1ccc(-c2ccc(Br)cc2)nc1`, the z-score is -0.143.

For the compound `Cn1c(N)c(C(=O)COC(=O)CSc2ccccc2)c(=O)n(C)c1=O`, the z-score was 0.116.

The compound `Cn1c(N)c(C(=O)CSc2nc(N)cc(=O)[nH]2)c(=O)n(C)c1=O` gave a z-score of 0.13.

Compound `CCn1c(Cc2ccc(OC)cc2)nnc1SCC(=O)Nc1nc2ccccc2s1` displayed a z-score of -0.238.

In turn, `CCC(CO)n1c(SCc2cc(=O)oc3cc(C)ccc23)nc2ccccc2c1=O` (configuration not stated) returned a z-score of 0.503.

The compound `CCc1oc2ccccc2c1C(=O)CCN1CCCCC1` yielded a z-score of 0.481.

The compound `Cc1cc(C)n(CCCNCC(O)c2ccccc2)n1` (configuration not stated) gave a z-score of 0.196.

For the compound `Cc1ncc(CO)c(/C=N/NC(=O)c2ccc(O)cc2)c1O`, the z-score was -0.221.

`O=C(c1cnccn1)N1CCN(c2ccccc2)CC1` gave a z-score of -0.108.

Regarding `O=C(c1ccco1)N1CCN(C(c2cccs2)c2sc3ncnn3c2O)CC1` (configuration not stated), the z-score worked out at 0.269.

As to `O=C(N/N=C/c1ccc([N+](=O)[O-])s1)c1ccccc1Br`, the z-score is -0.301.

Turning to `Cc1ccccc1CN(C)CC(=O)Nc1ccccc1-c1ccccc1`, the z-score is 0.244.

As for `Cc1ccc(S(=O)(=O)N2CCN(C(=O)Cc3ccc4c(c3)OCCO4)CC2)cc1C`, the z-score was -0.229.

Turning to `CC1Cc2nc(SCC(=O)Nc3ccc4c(c3)OCCO4)n(C)c(=O)c2S1` (configuration not stated), the z-score is -2.29.

`Cc1ccc(NC2=CC(=O)CC(C)(C)C2)c(N)c1`: the z-score is -0.165.

`O=C(OCC#CCSc1nc2ccccc2s1)c1ccco1`: the z-score is -1.16.

With `NC(=O)C1CCN(c2ccc(C(F)(F)F)cc2[N+](=O)[O-])CC1`, the z-score is 0.0305.

In turn, `Cc1ccc(CNC(=O)CCc2ccc(S(=O)(=O)NC3CCCCC3)cc2)cc1` gave a z-score of -0.502.

For the compound `N#Cc1c(NC(=O)c2ccc(N3CCOCC3)c([N+](=O)[O-])c2)sc2c1CCCC2`, the z-score is -0.412.

The compound `O=C(COC(=O)Cc1ccsc1)NCC1CCCCC1` gave a z-score of 0.126.

`O=C1C2C3C=CC(C3)C2C(=O)N1CCCO` (configuration not stated) registered a z-score of 0.101.

For the compound `CCOc1ccc(C(=O)NCCn2cc(SCC(=O)Nc3cc(C)on3)c3ccccc32)cc1`, the z-score was -0.34.

`Nn1c(SC/C=C/c2ccccc2)nnc1-c1ccccn1`: the z-score is active: -4.34.

`Cc1c(NC(=O)C(=O)/C=C(\O)c2ccc(Cl)cc2)c(=O)n(-c2ccccc2)n1C` returned a z-score of 2.16.

`Cc1ccc2c(c1)cc(CN(Cc1ccc3c(c1)OCO3)S(=O)(=O)c1ccccc1)c1nnnn12` yielded a z-score of -0.139.

`Cc1ccc(NC(=S)N(C)Cc2cn(C)c3ccccc23)cc1`: the z-score is 0.334.

Consider `CN(C)CCNC(=O)c1cc2ccccc2oc1=O`, for which the z-score amounted to 0.761.

Regarding `Cc1ccc(-c2nnc(/C=C/c3ccccc3)o2)cc1`, the z-score was -0.239.

In turn, `Cc1ccc2nc(SCc3ccc([N+](=O)[O-])cc3)nc(C)c2c1` had a z-score of -0.0907.

In turn, `Oc1ccc(Br)cc1C=Nc1ccc2[nH]ncc2c1` registered a z-score of -0.0698.

Consider `CSc1ncccc1C(=O)Nc1ccc(S(=O)(=O)Nc2nccs2)cc1`, for which the z-score was -0.16.

The compound `CCSc1nc(C)c(C(C)=O)cc1C#N` yielded a z-score of -0.273.

On to `O=C(CCc1ccccc1)Nc1ccc(NC(=O)c2ccco2)cc1`, for which the z-score turned out to be 1.63.

The compound `COc1ccccc1OC(=O)c1cc(Cl)nc2ccccc12` displayed a z-score of 0.605.

Turning to `CC(=O)N(CCC1(C(C)C)CCOC(C)(C)C1)Cc1ccco1` (configuration not stated), the z-score was 0.179.

In the case of `COc1ccc(-n2nnnc2SCC(=O)N2CCCC2)cc1OC`, the z-score turned out to be 0.896.

Turning to `CC(C)Sc1nc(C(F)(F)F)cc(=O)n1-c1ccccc1`, the z-score is 0.426.

On to `CCc1ccc(C(=O)Nc2cc3c(cc2Cl)OCCCO3)cc1`, for which the z-score is -0.587.

Consider `C=CCNC(=O)c1onc(CSc2ccc(Cl)cc2)c1C(=O)O`, for which the z-score was -0.4.

As for `O=C(NC(c1ccccc1)c1c(O)ccc2ccccc12)c1ccccc1Cl` (configuration not stated), the z-score was -0.398.

Compound `CCCC(=O)Oc1ccc(N(C(=O)CCC)S(=O)(=O)c2cccc([N+](=O)[O-])c2)cc1` gave a z-score of -0.312.

Take `O=C(/C=C/c1ccc(Cl)cc1)N1CCN(c2ccccn2)CC1`: the z-score was -0.287.

In turn, `CCn1c(=O)cc(SCC(=O)NCCCN2CCN(c3ccccc3F)CC2)c2ccccc21` displayed a z-score of 0.0677.

On to `Cc1cc2n(n1)C(c1ccc3c(c1)OCO3)Nc1c(C)cccc1-2` (configuration not stated), for which the z-score is -1.05.

`COc1cccc(Nc2nc(CN3CCOCC3)nc3sc4c(c23)CCCC4)c1` registered a z-score of -0.225.

In the case of `CC1=C(C(=O)OCC(C)C)C(c2cccc(F)c2)N2C(=O)C(C)SC2=N1` (configuration not stated), the z-score is -1.22.

Consider `CC1CCN(C(=S)c2cn(Cc3cccc(F)c3)c3ccccc23)CC1`, for which the z-score was -0.227.

On to `CN(C)c1ccc(CNC2C3CC4CC(C3)CC2C4)cc1` (configuration not stated), for which the z-score stood at 1.29.

`Cc1nc(N2CCc3ccccc32)[nH]c(=O)c1CCC(C)C` returned a z-score of 1.25.

With `COc1ccc(/C=N\NC(=S)SCN2C(=O)C3CCC(C)(C2=O)C3(C)C)cc1` (configuration not stated), the z-score was active: 9.12.

As for `CCOC(=O)c1cccc(NC(=O)CSc2nnc(-c3cccnc3)n2CC)c1`, the z-score was -0.583.

`CCOC(=O)c1ccc(NC(=O)c2cc(S(=O)(=O)N3CCOCC3)ccc2O)cc1` came in with a z-score of -2.37.

In turn, `Cc1ccc(Cn2cccc2C2=NC(C)CO2)cc1` (configuration not stated) came in with a z-score of -0.0156.

For `O=C(CCCSc1nc(-c2ccco2)cc(C(F)(F)F)n1)NCc1cccs1`, the z-score is -0.948.

In turn, `CCOc1ccc(/C(O)=C2/C(=O)C(=O)N(CCOCCO)C2c2ccc(F)cc2)cc1` (configuration not stated) displayed a z-score of 0.369.

In turn, `Cc1ccc(-c2csc(NNC(=O)c3ccccc3)n2)cc1` showed a z-score of -0.16.

`S=C(NCCSCc1ccc(Cl)cc1Cl)Nc1ccccc1`: the z-score was -0.181.

`COC(=O)c1ccc(NC(=O)C(=O)N2CCCC2)cc1`: the z-score was -0.352.

In turn, `COc1ccccc1NC(=O)CSC(N)=O` registered a z-score of 0.0872.

For `CC1CCCC(C)N1C(=O)CN1C(=O)C(C)(C)Oc2ccc(C(=O)NC3CCCCC3)cc21` (configuration not stated), the z-score is -0.0308.

`CCOc1ncccc1C(=O)OCC(=O)Nc1ccc(C)c(S(=O)(=O)N2CCOCC2)c1` had a z-score of -0.521.

With `CSc1cnn(-c2ccccc2)c(=O)c1SC`, the z-score is -0.142.

In turn, `COc1ccc(C(C(=O)NC2CCCCC2)N(C(=O)Cc2c[nH]c3ccccc23)c2ccccc2)cc1OC` (configuration not stated) registered a z-score of -0.0712.

`O=S(=O)(c1ccccc1)c1cnc(-c2cccnc2)nc1-c1ccc(Cl)cc1Cl` came in with a z-score of 0.15.

With `COc1ccc(C2N3CC4(C)CN2CC(C)(C3)C4O)cc1` (configuration not stated), the z-score was determined as 0.858.

`COc1cc(OC)cc(C(C(=O)NC2CCCCC2)N(C(=O)c2ccno2)c2ccccc2)c1` (configuration not stated) had a z-score of 0.314.

In turn, `Cc1noc(C)c1C(=O)Nc1ccc(F)c(F)c1` gave a z-score of -0.0662.

For the compound `CN(C)c1ccc(C(=O)OCC(=O)NCC2CCCO2)cc1` (configuration not stated), the z-score came out at 0.133.

Regarding `O=C(Nc1nc(-c2ccc(S(=O)(=O)N3CCCCCC3)cc2)cs1)c1cccs1`, the z-score is 0.452.

For the compound `Cc1cc(-c2ccccc2)nc(N/N=C/c2ccco2)n1`, the z-score was 0.0633.

As for `COc1ccc(OC)c(Nc2nc(-c3sc(N)nc3C)cs2)c1`, the z-score is -0.265.

In turn, `CCOC(=O)c1sc(-c2ccc(F)cc2)cc1N` showed a z-score of 0.0216.

For `CCOc1ccc(N(CC(=O)NCc2cccs2)S(=O)(=O)c2c(C)noc2C)cc1`, the z-score is -0.465.

On to `O=C(CN1C(=O)COc2ccc(Cl)cc21)Nc1ccc2c(c1)OCCO2`, for which the z-score was -0.162.

`Cc1cc(C)nc(SCc2cccc(C(=O)O)c2)n1` came in with a z-score of 0.0375.

As for `COc1ccccc1-c1cc(C(=O)N/N=C/c2ccc(C)s2)c2ccccc2n1`, the z-score is -0.0583.

Compound `Cc1cc(C)cc(NC(=O)CN(C)S(=O)(=O)c2cnc[nH]2)c1` showed a z-score of -0.129.

`O=C(NC(Cc1ccccc1)c1ccc2c(c1)OCCCO2)c1ccccc1` (configuration not stated) had a z-score of -0.929.

The compound `C=CCn1c(=N)c(C#N)cc2c(=O)n3ccccc3nc21` gave a z-score of -0.167.

Consider `COC(=O)CN(c1ccc(C(C)C)cc1)S(=O)(=O)c1c(C)[nH]c(=O)[nH]c1=O`, for which the z-score is -0.0571.

In the case of `CC12CC3CC(C)(C1)CC(C(=O)NC1=NCCS1)(C3)C2`, the z-score is -0.108.

In turn, `Cc1ccccc1N1C(=O)C(Cl)=C(N2CCN(c3ccccc3)CC2)C1=O` returned a z-score of -0.739.

In turn, `O=C(O)CC1C(=O)NCCN1Cc1ccc(F)c(F)c1` (configuration not stated) gave a z-score of -0.183.

For the compound `Cc1cc(Nc2ccccc2)n(-c2ccc(Br)cc2)n1`, the z-score is -0.541.

Compound `c1ccc(-n2ncc(-c3nn[nH]n3)n2)cc1` showed a z-score of 1.62.

The compound `Cc1cccc(Nc2nc(N3CCCC3)nc(N3CCCC3)n2)c1` showed a z-score of 0.00977.

With `COc1ccc(C(C(=O)NC2CCCC2)N(C(=O)c2snc(-c3ccc(F)cc3)c2N)c2ccccc2)cc1` (configuration not stated), the z-score was -0.157.

Consider `CCOC(=O)N1CCC(NC(=O)c2oc3c(c2C)-c2[nH]ncc2CC3)CC1`, for which the z-score turned out to be 0.028.

Compound `CCn1c(-c2ccc([N+](=O)[O-])cc2)n[nH]c1=S` gave a z-score of -0.246.

`O=C(Cc1cccs1)N1CCCC(c2nc3c(nnn3Cc3cccc(Cl)c3)c(=O)[nH]2)C1` (configuration not stated) came in with a z-score of -0.459.

The compound `O=C(Nc1c(-c2cccs2)nc2ccccn12)c1ccc2ccccc2c1` gave a z-score of 0.00499.

Consider `CCN(CC)C(=O)C(C)OC(=O)c1ccc(O)cc1` (configuration not stated), for which the z-score was found to be 0.46.

The compound `CCOC(=O)c1ccc(N2Cc3ccccc3C2=NC(=O)c2cccs2)cc1` displayed a z-score of -0.139.

As for `COc1ccc([N+](=O)[O-])cc1NC(=O)C(C)OC(=O)c1ccccc1C(=O)c1ccc(Cl)cc1` (configuration not stated), the z-score came to 0.0662.

As for `Cc1nn(C)cc1CNC(=O)c1cccc(Br)c1`, the z-score is -0.121.

Compound `CCCCNC(=O)OCC(CC)NC(=O)OCC(C)C` (configuration not stated) gave a z-score of 0.0801.

As to `O=C(NCCN1CCN(c2cccc(Cl)c2)CC1)C1CCCN(S(=O)(=O)c2cnc[nH]2)C1` (configuration not stated), the z-score is -0.0551.

`COc1ccccc1NC(=O)c1nn(C)cc1Br`: the z-score was found to be 0.0965.

On to `O=C(CCN1C(=O)C2(OCCO2)c2ccccc21)c1ccccc1`, for which the z-score was -0.063.

Turning to `CC1(C)Cc2ccccc2C(=C(C#N)C#N)N1`, the z-score is -0.285.

As for `COc1ccc(CNC(=O)CSCc2ccccc2Cl)cc1`, the z-score is active: 4.96.

Turning to `S=C1N(c2ccccc2)C(c2cccc3ccccc23)N2CCCN12` (configuration not stated), the z-score turned out to be 0.228.

As for `c1ccc(-n2nnnc2N2CCOCC2)cc1`, the z-score was 0.0754.

`CC1Cc2ccccc2N1C(=O)CSc1nc(N)cc(=O)[nH]1` (configuration not stated) gave a z-score of -0.205.

In the case of `CC(C)(C)n1nnnc1C(c1ccc(F)cc1)N(Cc1ccc(F)cc1)Cc1ccco1` (configuration not stated), the z-score was -0.0416.

Regarding `COc1cccc(NC(=O)Nc2cccs2)c1`, the z-score turned out to be 1.67.

In the case of `CCn1c(=O)c(C(=O)NCCc2ccccc2)c(O)c2ccccc21`, the z-score is 0.613.

As to `O=C(Cc1ccccc1)NCc1nc2ccccc2[nH]1`, the z-score is 0.328.

Compound `CC(C)OC(=O)c1nnc(-c2ccccc2)nc1OC(C)C` yielded a z-score of -0.673.
